This is one part of the list. Antibody binding of pooled human sera (four to six donors per pool; dilution not stated) to peptides of the Trypanosoma cruzi antigen TSSA on microarrays. Quantile-normalised fluorescence in arbitrary units, mean of duplicate arrays; higher = more binding. No active / inactive call. The uninfected pools are read here as the healthy donors of the same country. The strongest signals lie near the top of the scale (about 60,000).
Tested on: pooled sera of chronic Chagas disease patients, Argentina
Assay: antibody binding signal (normalised fluorescence) (arbitrary fluorescence units); higher = stronger serum antibody binding to peptide
Method: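 Microarray of 15-residue peptides over residues 30-55 of Trypanosoma cruzi TSSAII, each with 1 to 10 substitutions at naturally variable positions, probed with one serum pool per country.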

Sequence	antibody binding signal
GTENKAATGGTPSQS	37800
KEKKAATGETPSQPG	1600
PPSGTENKTAAGGTP	48000
PSGTEKKPAAGGAPS	22000
GTDKKTATGETPSPP	365
TENKPATGETPSPPG	42200
GTENKPAAGGAPSQP	45500
ENKTATGGAPSPSGA	486
KDKKPAAGETPSQSG	162
TDNKTATGETPSQPG	2640
GTDKKPAAGGTPSQS	265
SGKDKKPATGEAPSQ	44700
TEKKAAAGGTPSQPG	972
GKDKKPAAGGAPSQP	209
TPPSGKENKTAAGET	14400
SGKENKTATGETPSP	1700
GTDNKPATGEAPSPP	44800
GKENKAATGGAPSQS	4030
GTDKKTATGGAPSPP	1110
TENKPATGGAPSQPG	42000

Sequence	antibody binding signal
GTEKKPATGGTPSPP	1940
GKENKPATGGAPSQS	6610
KPATGGTPSPSGASS	415
SGTDNKPAAGGTPSQ	2580
SGKEKKAATGETPSP	3850
PPSGKDKKPATGEAP	43200
GKENKAAAGETPSPP	4640
GTEKKTAAGETPSPP	371
TSSTPPSGKDKKAAT	24200
DKKPATGEAPSPPGA	44600
PPSGKDNKPATGGTP	772
SGTENKAAAGEAPSP	40000
GTDKKPAAGGAPSQS	457
ENKTATGGAPSQPGA	624
KTAAGETPSQSGASS	148
GKDNKAATGGAPSPS	736
TPPSGTENKPATGGA	49600
TDNKTAAGETPSPSG	268
PPSGTDKKPAAGEAP	17400
SGKENKAATGGAPSQ	3100
